The structures appear in SMILES notation. Structures can show the parent of a compound that is named as a salt. The list shows a part of the results. Single values are uncertain, as repeats are few or missing.
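Note: primary screen of an FDA-approved drug library in HeLa reporter cells in 96-well format, CellMask signal normalized to DMSO-treated wells set as 1, under 0.5 deemed highly cytotoxic.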

The test concerns HeLa VPS33A reporter cells. Briefly: relative cell viability (CellMask signal) vs DMSO (fraction of DMSO); HeLa model of a glycosaminoglycan (GAG) storage disease; KI is knock-in and KO knock-out; SDC1 is syndecan 1; higher = less cytotoxic. The settings on record: 50 µM; 24 h.
For `Cc1cn([C@H]2C[C@H](N=[N+]=[N-])[C@@H](CO)O2)c(=O)[nH]c1=O` [Zidovudine], the relative cell viability was 1.07. Compound `Cc1cn(-c2cc(NC(=O)c3ccc(C)c(Nc4nccc(-c5cccnc5)n4)c3)cc(C(F)(F)F)c2)cn1` [Nilotinib(AMN-107)] gave a relative cell viability of 1.2. `CCOC(=O)c1ccc(OC(=O)CCCCCNC(=N)N)cc1` [Gabexate mesylate] yielded a relative cell viability of 1.18. On to `NNc1nncc2ccccc12` [Hydralazine HCl], for which the relative cell viability turned out to be 1.03. Regarding `O=C(O)/C=C/c1ccc(Cn2ccnc2)cc1` [Ozagrel HCl], the relative cell viability turned out to be 0.952. To `C[C@H]1O[C@H](O[C@H]2[C@H](O)[C@@H](O)[C@@H](O[C@@H]([C@H](O)[C@@H](O)C=O)[C@H](O)CO)O[C@@H]2CO)[C@H](O)[C@@H](O)[C@@H]1N[C@H]1C=C(CO)[C@@H](O)[C@H](O)[C@H]1O` [Acarbose] belongs 1.27; to `C#C[C@]1(O)CC[C@H]2[C@@H]3CCC4=CC(=O)CC[C@@H]4[C@H]3CC[C@@]21CC` [Levonorgestrel], 1.03; to `CN(C)/N=N/c1[nH]cnc1C(N)=O` [Dacarbazine], 1.19.

The values are drawn from the supplement of paper PMC12355420.
